# From PubChem BioAssay AID504832 (National Center for Advancing Translational Sciences (NCATS), 2011)
# Out of some 310,000 compounds screened, about 18,000 (5.8%) were called active. Inconclusive results, whose numbers are uncertain, are shown with a selection of clear calls. Calls follow the shape of the dose curve; as a rule, active = well fitted inhibition curve with a large enough effect; inconclusive = small, poorly fitted or top-dose-only effect, or another doubt; inactive = no such curve, though single readings can be large or run the other way. Potencies of inconclusive entries are left out as doubtful fits.
# Assay: Primary qHTS for delayed death inhibitors of the malarial parasite plastid, 48 hour incubation
# Details: P. falciparum luciferase growth in erythrocytes; series mostly up to 28.7 µM
# Outline: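 Erythrocytes infected with P. falciparum carrying an integrated firefly luciferase reporter (2% hematocrit, 0.1% parasitemia final) were exposed to compounds in RPMI 1640 with 0.5% Albumax at 37 C, 5% CO2. Growth inhibition was scored as reduced luminescence.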
# Potency is read from the fitted curve at half-maximal effect; tags tell the direction and shape of the fitted curve.
row,SMILES,Potency
1,CS(=O)(=O)c1ccc(Cl)c(NC(=O)COC(=O)c2c(Cl)cccc2Cl)c1,"inconclusive [inhibitor, partial curve]"
2,COc1ccc(S(=O)(=O)N2CCN(C(=O)c3c(C)nn(-c4ccccc4)c3C)CC2)cc1,active: 10.4 µM
3,CCNC(=O)c1ccc(CSc2ccc(Cl)cc2)cc1,active: 4.65 µM
4,O=C(Nc1ccccc1N1CCCCC1)C1CC(=O)N(c2ccccc2F)C1 (stereo not given),"inconclusive [inhibitor, partial curve]"
5,CCN(CC)C(=O)CSc1nnc2nnc3cc(Cl)ccc3n12,active: 4.65 µM
6,COc1ccc(NC(=O)c2sccc2-n2cccc2)cc1,"inconclusive [inhibitor, single point]"
7,Cc1c(-c2ccc(F)cc2)nc(N)c(C#N)c1-c1cccs1,inactive
8,Cc1c(C#N)c2ccccc2n1CC(=O)NC(C)c1ccccc1 (stereo not given),active: 2.94 µM
9,COc1cc(C2C3=C(Nc4ncnn42)c2ccccc2CC3)cc(OC)c1OC (stereo not given),"inconclusive [inhibitor, single point]"
10,O=C(COc1ccc(=O)n(-c2ccccc2)n1)Nc1ccccc1,"inconclusive [inhibitor, single point]"
11,CCN(CCNC(=O)c1ccc(C#N)cc1)c1cccc(C)c1,"inconclusive [inhibitor, partial curve, poor fit]"
12,CC1CCCN(S(=O)(=O)c2ccc3c(c2)c(=O)nc2ccc(Cl)cn23)C1 (stereo not given),"inconclusive [inhibitor, single point]"
13,Cc1ccc(N2C(=O)CSC2c2cccnc2)c(Cl)c1 (stereo not given),"inconclusive [inhibitor, single point]"
14,C=CCn1c(COc2ccccc2)nnc1SC(C)C(=O)N/N=C/c1cc(Cl)ccc1O (stereo not given),"inconclusive [inhibitor, single point]"
15,N/C(COc1ccc(Cl)cc1)=N\NS(=O)(=O)c1ccccc1,inactive
16,N=c1nc(N)nc2n1NC(c1ccc(F)cc1)=CS2,inactive
17,CCCN1CNC(=S)N(c2ccc(C)cc2C)C1,"inconclusive [inhibitor, single point]"
18,CCN(C(=O)COC(=O)c1oc2ccccc2c1C)c1c(N)n(Cc2ccccc2)c(=O)[nH]c1=O,"inconclusive [inhibitor, single point]"
19,CCCNC(=O)C(Cc1cccc(C#N)c1)NC(=O)c1ccc(C#N)cc1 (stereo not given),inactive
20,COc1ccccc1-n1c(SCC(=O)O)nc2c(sc(=S)n2-c2ccc(Cl)c(C)c2)c1=O,"inconclusive [inhibitor, single point]"
21,Cn1c(=O)[nH]c(=O)c2c1nc(NCCc1ccccc1)n2CC(O)COc1ccccc1 (stereo not given),"inconclusive [inhibitor, full curve, poor fit]"
22,CCC(C)N1C(=O)S/C(=C/c2ccc(N3CCOCC3)cc2C)C1=O (stereo not given),inactive
23,Cc1nc2cc(F)ccc2n1C1CCN(C(=O)c2ccc(F)cc2F)CC1,"inconclusive [inhibitor, partial curve, poor fit]"
24,O=[N+]([O-])c1cccc(S(=O)(=O)Nc2ccc(Cc3ccncc3)cc2)c1,"inconclusive [inhibitor, partial curve]"

row,SMILES,Potency
1,Cc1ccc(OCC(=O)NS(=O)(=O)c2ccc(Cl)cc2)cc1,inactive
2,Cc1ccc(C(=O)NC(=S)Nc2ccc(NC(=O)c3cccc(Cl)c3)cc2)cc1,"inconclusive [inhibitor, partial curve, poor fit]"
3,COc1cc(C2C(C#N)=C(N)OC3=C2C(=O)CC(C)(C)C3)cc([N+](=O)[O-])c1O (stereo not given),inactive
4,O=S(=O)(CCN1CCOCC1)c1ccc(OC(F)(F)F)cc1,inactive
5,CCN(CC(=O)NC(=O)NCc1ccccc1)Cc1nc2ccccc2c(=O)[nH]1,"inconclusive [inhibitor, full curve]"
6,CC(C)Sc1nc(SCC(=O)O)c2c3c(sc2n1)COC(C)(C)C3,"inconclusive [inhibitor, single point]"
7,Cc1cc(C(=O)N[C@H](c2ccccc2)[C@@]2(C)C[C@@H]2[C@@H](C)C(=O)Nc2ccc3ccccc3c2)n(C)n1,active: 2.62 µM
8,CCCc1cc2c(=O)c(-c3ccc4c(c3)OCCO4)coc2cc1OC(=O)c1ccco1,inactive
9,O=C(COC(=O)CCCN=C1NS(=O)(=O)c2ccccc21)NC(=O)NC1CCCC1,inactive
10,Cc1c(OCC(=O)NCc2ccccn2)ccc2c(-c3ccccc3)cc(=O)oc12,"inconclusive [inhibitor, single point]"
11,COC(C(=O)Nc1ccnn1C1CCN(Cc2ccccn2)CC1)c1ccccc1 (stereo not given),inactive
12,Cc1ccc(C)c(N(C(=O)CS(=O)CC(=O)Nc2ccc3c(c2)OCO3)C(C)C(=O)NC2CCCC2)c1 (stereo not given),"inconclusive [inhibitor, single point]"
13,CCCCSc1nc(NCc2ccco2)c2c3c(sc2n1)COC(C)(C)C3,active: 10.4 µM
14,O=C(COc1ccccc1)Nc1nnc(S(=O)(=O)N2CCCCCC2)s1,inactive
15,CCOC(=O)N1CCN(C(=O)c2nn(C)c3c2CSc2ccccc2-3)CC1,"inconclusive [inhibitor, partial curve, poor fit]"
16,CCCCc1cc2c(c(NC(=O)CC)n1)c(=O)oc1ccccc12,inactive
17,CN(C)CCNC(=O)c1ccc2c(c1)NC(=O)c1ccccc1S2,active: 11.7 µM
18,COc1ccc2cc(C(=O)N/N=C/c3cc(OC)c(OC)c(OC)c3)[nH]c2c1,"inconclusive [inhibitor, full curve, poor fit]"
19,Cn1c(SCC(=O)NCc2ccc3c(c2)OCO3)nnc1-c1cccs1,"inconclusive [inhibitor, single point]"
20,CCC(C)SCC(=O)Nc1ccc(S(=O)(=O)N2CCOCC2)cc1OC (stereo not given),inactive
21,COc1ccc(CCNC(=O)c2ccc3c(c2)NC(=O)C(C(C)C)N3)cc1OC (stereo not given),"inconclusive [inhibitor, single point]"
22,O=C(Nc1cccnc1)c1cc(-c2ccco2)on1,inactive
23,COc1cccc(/C=N/NC(=O)c2[nH]c(C)c(C(=O)N/N=C/c3cccc(OC)c3O)c2C)c1O,active: 9.28 µM
24,O=C(Cn1ccc(C(F)(F)F)n1)Nc1cccc(S(=O)(=O)N2CCCCC2)c1,"inconclusive [inhibitor, single point]"

row,SMILES,Potency
1,CC(/C=C/c1ccco1)=N\NC(=O)CNc1cccc(C)c1,"inconclusive [inhibitor, partial curve, poor fit]"
2,CCOC(=O)c1c(C)oc2c1c1c(c3ccccc32)OCN(CCCC(=O)O)C1,inactive
3,Cc1c(C(=O)NCCC2=CCCCC2)oc2ccc(S(=O)(=O)N3CCC4(CC3)OCCO4)cc12,"inconclusive [inhibitor, partial curve]"
4,N#Cc1ccccc1OCC(=O)NC(=O)NCc1ccccc1,inactive
5,COc1ccc(C2CC(c3cccc(OC)c3OC)n3nnnc3N2)cc1 (stereo not given),"inconclusive [inhibitor, partial curve, poor fit]"
6,COc1ccc(C(O)C(CN2CCOCC2)c2ccccc2)cc1F (stereo not given),active: 6.57 µM
7,COc1ccc(C2C(C#N)=C(C)NC(C)=C2C(=O)OC(C)C)c(OC)c1 (stereo not given),active: 7.38 µM
8,Nc1cc(Cl)ccc1C(=O)OCC(=O)NC1CCCCCCC1,"inconclusive [inhibitor, single point]"
9,CC(=O)N1CCOc2ccc(S(=O)(=O)N3CCC(C(=O)Nc4ccc(C)cc4)CC3)cc21,"inconclusive [inhibitor, single point]"
10,Cc1ccc2nc(-c3cccnc3)cc(C(=O)Nc3ccccc3[N+](=O)[O-])c2c1,"inconclusive [inhibitor, single point]"
11,Cc1ccccc1C(=O)Nc1cccc(NC(=S)NC(=O)c2cccs2)c1,"inconclusive [inhibitor, full curve, poor fit]"
12,O=S(=O)(Nc1nc2ccccc2nc1NCc1ccco1)c1ccc(Cl)cc1,inactive
13,Cc1[nH][nH]c(=O)c1C(c1ccc([N+](=O)[O-])cc1)c1c(C)[nH][nH]c1=O,"inconclusive [inhibitor, single point]"
14,O=C(NCC(c1ccco1)N1CCc2ccccc2C1)c1ccc(Br)cc1 (stereo not given),"inconclusive [inhibitor, full curve, poor fit]"
15,Cc1cccc(Sc2nc(-c3ccccc3)ncc2C(=O)O)c1,inactive
16,Cc1nn(-c2ccccc2)c(C)c1/C=N/Nc1nc2ccccc2[nH]1,active: 0.586 µM
17,O=C(CN1CCN(c2ncccn2)CC1)Nc1ccccc1-n1cccc1,"inconclusive [inhibitor, single point]"
18,Cc1ccccc1Cn1nc(C)c(NC(=O)/C=C/c2cnn(C)c2C)c1C,"inconclusive [inhibitor, partial curve, poor fit]"
19,O=C1C(I)=CC(=C(c2cc(I)c(O)c(I)c2)c2ccccc2C(=O)O)C=C1I,inactive
20,O=c1c2ccccc2nnn1CSc1nnc(COc2ccc(Cl)cc2)n1Cc1ccco1,"inconclusive [inhibitor, partial curve]"
21,COc1ccc(-c2noc(CCCC(=O)Nc3ccc(C(N)=O)cc3)n2)cc1OC,"inconclusive [inhibitor, partial curve, poor fit]"
22,CCC(C)NC(=O)C(Cc1ccccc1)NS(=O)(=O)c1ccc2c(c1)oc(=O)n2C (stereo not given),inactive
